# PubChem BioAssay AID2676 (National Center for Advancing Translational Sciences (NCATS), 2010)
# In all, about 370,000 compounds went through this assay and about 1,100 (0.3%) were called active. The inconclusive results got no clear call from the source; some entries with a clear call stand among them for comparison. Calls come from the whole dose curve; as a rule, active = well fitted activation curve with a large enough effect; inconclusive = small, poorly fitted or top-dose-only effect; inactive = flat fitted curve, though single readings scatter. Potencies beside an inconclusive call are fits to weak or partial responses and may not hold up. A structure can be active in one record and inactive in another.
# Biological target: Relaxin receptor 1 (Homo sapiens) (UniProt Q9HBX9)
# Chain of UniProt Q9HBX9 (Q9HBX9 whole entry, looked up): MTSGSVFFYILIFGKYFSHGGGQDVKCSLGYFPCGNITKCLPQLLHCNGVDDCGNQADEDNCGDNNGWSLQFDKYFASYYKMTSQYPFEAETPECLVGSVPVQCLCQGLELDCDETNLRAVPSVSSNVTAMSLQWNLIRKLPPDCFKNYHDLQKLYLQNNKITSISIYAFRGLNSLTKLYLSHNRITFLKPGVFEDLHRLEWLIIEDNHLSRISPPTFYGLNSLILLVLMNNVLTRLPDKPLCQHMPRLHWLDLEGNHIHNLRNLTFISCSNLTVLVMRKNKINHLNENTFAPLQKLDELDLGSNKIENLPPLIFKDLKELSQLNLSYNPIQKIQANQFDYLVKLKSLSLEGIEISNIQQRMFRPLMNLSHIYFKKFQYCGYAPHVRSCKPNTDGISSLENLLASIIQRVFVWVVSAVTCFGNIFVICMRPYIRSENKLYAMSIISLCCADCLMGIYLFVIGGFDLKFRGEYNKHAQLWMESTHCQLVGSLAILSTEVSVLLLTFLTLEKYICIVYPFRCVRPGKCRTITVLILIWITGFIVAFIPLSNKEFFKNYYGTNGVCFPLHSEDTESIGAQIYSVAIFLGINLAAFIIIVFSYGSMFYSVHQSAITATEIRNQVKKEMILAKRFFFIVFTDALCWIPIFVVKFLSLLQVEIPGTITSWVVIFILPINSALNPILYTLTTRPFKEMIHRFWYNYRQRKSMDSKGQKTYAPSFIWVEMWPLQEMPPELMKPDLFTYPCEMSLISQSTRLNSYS
# Experiment: qHTS Assay for Agonists of the Relaxin Receptor RXFP1; note: nearly all actives have a fitted effect of over 60% in size
# Conditions: HEK293T-RXFP1 cAMP TR-FRET, 30 min; series mostly up to 57.5 µM; activation: at the top concentration
# Procedure, shortened: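 Agonist response is measured as cAMP accumulation in an RXFP1-transfected HEK293T line under PDE4 inhibition. Values are scaled between buffer-only and 29 nM porcine relaxin, and EC50s come from standard Hill equation fits.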
# % is set by controls: 0 for no effect and ±100 for the full control effect; potency is the fitted concentration of half-maximal effect; tags give direction and shape of the fitted curve.
SMILES,activation,Potency
CCOC(=O)Cc1nnc(NC(=O)c2ccco2)s1,inactive: 0.455%,
CC1(C)CC(=O)c2cc(-c3nc(-c4ccccc4)cs3)c(=O)[nH]c2C1,,"inconclusive: 31.6 µM [activator, single point]"
CC[n+]1ccc(/C=C/c2ccc(N(C)C)cc2)c2ccccc21,inactive: -15.6%,
Cc1ccc(C(=O)C2=C(O)C(=O)N(Cc3ccccc3)C2c2cccnc2)o1 (stereo not drawn),,"inconclusive: 20 µM [activator, partial curve]"
CCOC(=O)C(Cc1ccccc1)NC(=O)CCc1c(C)nc2c(c(C)nn2-c2ccc(C)c(C)c2)c1C (stereo not drawn),,"inconclusive: 39.8 µM [activator, single point]"
O=c1oc(-c2ccc(Br)cc2)nc2ccccc12,,"inconclusive: 35.5 µM [activator, single point]"
Cc1ccc2nc(SCC(=O)NCc3ccco3)c(C#N)cc2c1,,"inconclusive: 35.5 µM [activator, single point]"
O=C(Nc1nnc(C2CCCCC2)s1)c1ccc(Br)s1,,"inconclusive: 35.5 µM [activator, single point]"
COc1ccc(OC)c(-c2csc(NC(=O)CSc3nnnn3C)n2)c1,,"inconclusive: 31.6 µM [activator, single point]"
CCc1ccc(OCC(=O)Nc2ccc3c(c2)c2ccccc2n3CC)c(Br)c1,,"inconclusive: 39.8 µM [activator, single point]"
CCN(CC)S(=O)(=O)c1cccc(C(=O)NCCCn2ccnc2)c1,,"inconclusive: 22.4 µM [activator, partial curve]"
CC(N=Cc1cc([N+](=O)[O-])ccc1O)c1ccccc1 (stereo not drawn),inactive: 1.3%,
Cc1cccc(OCC(=O)N/N=C/c2ccc(N(C)C)cc2)c1,inactive: -0.613%,
CCN(Cc1ccccc1)C(=O)Cn1ncc2c(=O)oc3ccc(C)cc3c21,,"inconclusive: 31.6 µM [activator, single point]"
O=C(CNC(=O)c1ccc(F)cc1)OCc1cc(=O)n2nc(C3CCCCC3)sc2n1,,"inconclusive: 39.8 µM [activator, single point]"
CC(=O)c1sc(NC(=O)C(C)C)nc1C,,active: 8.91 µM
OCCn1c(-c2ccc3c(c2)OCO3)csc1=Nc1ccccc1,inactive: -0.943%,
CC(=O)c1ccc(NC(=O)Cn2ncc3c4ccccc4n(Cc4ccccc4)c3c2=O)cc1,,"inconclusive: 31.6 µM [activator, single point]"
O=C(c1ccc2c(c1)N(Cc1cccc(Cl)c1)C(=O)c1ccccc1S2=O)N1CCN(c2cccc(C(F)(F)F)c2)CC1 (stereo not drawn),inactive: 0.843%,
N#Cc1cc2cc3c(cc2nc1N1CCCCC1)OCCO3,,"inconclusive: 39.8 µM [activator, single point]"
Cc1nc(-c2nnc(SCC(=O)Nc3cc(Cl)cc(Cl)c3)n2C)cs1,,"inconclusive: 35.5 µM [activator, single point]"
O=C(COc1ccccc1)NCc1nnc2c3ccccc3c(-c3ccccc3)nn12,,"inconclusive: 20 µM [activator, partial curve]"
Cc1ccc(-n2nnc(-c3nc(-c4cccs4)no3)c2N)c(C)c1,,"inconclusive: 20 µM [activator, partial curve]"

SMILES,activation,Potency
CC(C)CC(C)c1cc(N)nc2nc3ccccc3n12 (stereo not drawn),inactive: 3.09%,
COc1ccc(-n2c(SCC(=O)C(C)(C)C)nc3ccsc3c2=O)cc1,,"inconclusive: 39.8 µM [activator, single point]"
CCOC(=O)c1sc(NC(=O)c2ccc(OC(C)=O)cc2)nc1C,,"inconclusive: 28.2 µM [activator, single point]"
CSc1ccc(/C=N/NC(=O)CN2CCN(Cc3ccc(Cl)cc3)CC2)cc1,inactive: -1.76%,
O=C(CSc1ccccc1)NC1CCCCCCC1,inactive: -1.37%,
Cc1ccc(OCC(=O)OC2=C(C(=O)c3ccccc3)N(C)S(=O)(=O)c3ccccc32)cc1,inactive: -0.0522%,
CN(Cc1ccco1)S(=O)(=O)c1ccc(CN2C(=O)c3cccnc3C2=O)s1,,"inconclusive: 17.8 µM [activator, partial curve]"
Cn1c(CCC(=O)OCC(=O)NCC(F)(F)F)nc(=O)c2ccccc21,,"inconclusive: 14.1 µM [activator, partial curve]"
Cn1c(=O)cc(SCC(=O)N2CCCC2)c2ccc(Cl)cc21,inactive: 7.33%,
COc1ccc(-n2c(=S)[nH]c3cc(C(=O)NCc4ccccc4)ccc3c2=O)c(OC)c1,inactive: 2.53%,
N#Cc1c(N)n(-c2cccc(Cl)c2)c2nc3ccccc3nc12,,"inconclusive: 39.8 µM [activator, single point]"
COc1ccc(OC)c(CNC(=O)C2CCN(c3nc4ccccc4nc3C(F)(F)F)CC2)c1,,"inconclusive: 10 µM [activator, partial curve]"
Cc1ccc(S(=O)(=O)c2cc3ccccc3oc2=O)cc1,,"inconclusive: 35.5 µM [activator, single point]"
COC(=O)Cn1cnc2c(C#N)c3n(c2c1=O)CCCCC3,,"inconclusive: 15.8 µM [activator, partial curve]"
CCc1nonc1NC(=O)c1oc2ccc(Br)cc2c1C,,active: 25.1 µM
CCN(CC)CCCN1C(=O)C(O)=C(C(=O)c2cc3ccccc3o2)C1c1ccccn1 (stereo not drawn),,"inconclusive: 15.8 µM [activator, partial curve]"
CCCN1CCN(C(=O)CCc2nnc3ccc(N4CCN(c5cccc(OC)c5)CC4)nn23)CC1,,"inconclusive: 25.1 µM [activator, partial curve]"
COc1cccc(C(=O)Nc2nnc(-c3ccc(OC)cc3OC)s2)c1,,"inconclusive: 31.6 µM [activator, single point]"
Cc1csc(NC(=O)c2sc3nc(-c4cccs4)ccc3c2N)n1,,"inconclusive: 28.2 µM [activator, partial curve]"
COc1ccc(C(=O)Nc2cccc(-c3nc4ncccc4o3)c2C)cc1OC,,"inconclusive: 39.8 µM [activator, single point]"
CCOC(=O)c1nnn2c1nc(N1CCN(C)CC1)c1ccccc12,,"inconclusive: 28.2 µM [activator, single point]"
CCOc1ccc(-c2nn(-c3ccccc3)cc2/C=C2\SC(N)=NC2=O)cc1C,,"inconclusive: 39.8 µM [activator, single point]"
COc1ccccc1OC(C)C(=O)Nc1cccc(-c2nc3ccccc3o2)c1 (stereo not drawn),inactive: -1.28%,

SMILES,activation,Potency
O=c1cc(-c2ccccc2)c2cc(Cl)ccc2[nH]1,,"inconclusive: 35.5 µM [activator, single point]"
Cc1ccc(NC(=O)c2cnn3c2NC(c2ccccc2)=CC3c2ccccc2)cc1 (stereo not drawn),,"inconclusive: 25.1 µM [activator, single point]"
O=C(O)c1ccccc1CSc1nnc2c(n1)[nH]c1ccccc12,,"inconclusive: 15.8 µM [activator, partial curve]"
COc1cc(NC(=O)Cn2cc(C(=O)c3ccc(F)cc3)c(=O)c3ccc(C)nc32)cc(OC)c1,,"inconclusive: 39.8 µM [activator, single point]"
Cc1ccc2nc3c(cc(C#N)c(=O)n3-c3nnc(SCc4ccccc4)s3)c(=O)n2c1,,"inconclusive: 39.8 µM [activator, single point]"
CN1CCN(c2ccc(-c3cc(O)c4ncccc4c3)cc2)CC1,inactive: -0.488%,
CCCCn1c(=NC(=O)c2cccnc2)c(C(=O)OCC)cc2c(=O)n3ccccc3nc21,inactive: 7.92%,
Cc1ccc(NC(=O)CN(C)C(=O)c2cccc(S(=O)(=O)N3CCc4ccccc43)c2)cc1,inactive: -1.19%,
CCc1nnc(NC(=O)CSc2nc(C)cc(C)c2C#N)s1,,"inconclusive: 39.8 µM [activator, single point]"
COc1ccc(N2C(=O)C3CCCN3C2c2cccc(Br)c2)cc1 (stereo not drawn),inactive: 0.778%,
CCOc1ccc(-c2cc3nc(C4CCN(C(=O)OC(C)(C)C)CC4)c(C(=O)Nc4cccc(CC)c4)cn3n2)cc1,,"inconclusive: 28.2 µM [activator, single point]"
Cc1ccc(-n2ncc3c(NCc4ccccc4)ncnc32)cc1Cl,,"inconclusive: 39.8 µM [activator, single point]"
CCn1c(SCC(=O)NCc2ccco2)nnc1-c1ccncc1,inactive: -0.0706%,
CN(C(=O)COC(=O)Cn1cnc2c1c(=O)n(C)c(=O)n2C)C1(C#N)CCCCC1,,"inconclusive: 15.8 µM [activator, partial curve]"
CNc1nc(-c2ccccc2)nc(-c2ccc(OC)cc2)c1C#N,,"inconclusive: 35.5 µM [activator, single point]"
O=C(C1CCN(c2ncnc3c2sc2cccc(F)c23)CC1)N1CCCC1,,"inconclusive: 15.8 µM [activator, partial curve]"
CS(=O)(=O)c1sc2nc(-c3cccs3)cc(-c3ccccc3)c2c1N,,"inconclusive: 22.4 µM [activator, partial curve]"
O=C(C1=C(O)C(=O)N(Cc2ccco2)C1c1cccc(O)c1)c1ccco1 (stereo not drawn),,"inconclusive: 31.6 µM [activator, partial curve]"
O=C(NCCCn1ccnc1)/C(=C/c1cccs1)NC(=O)c1ccco1,inactive: -0.864%,
O=S(=O)(c1cccc(-c2n[nH]c(=S)o2)c1)N1CCOCC1,,"inconclusive: 31.6 µM [activator, partial curve]"
O=C(Nc1ccc(F)cc1F)C1CCN(S(=O)(=O)c2ccc3[nH]c(=O)ccc3c2)CC1,,"inconclusive: 39.8 µM [activator, single point]"
S=c1[nH]cc(-c2ccc(Cl)cc2)n1-c1ccccc1,,"inconclusive: 31.6 µM [activator, single point]"
